The other results are listed elsewhere or left out.

The test system of the first experiment is HepG2. Kind of experiment: cytotoxicity call (relative viability < 0.9). To be noted: 10 µM.
Take `C[C@H](NC(=O)C[C@H]1C=C[C@H](NC(=O)CN2CCOCC2)[C@@H](CO)O1)c1ccccc1`: the cytotoxicity call is “inactive”.

On to `C=CCNC(=O)[C@@H]1[C@H]2C(=O)O[C@H](c3ccccc3)[C@H](c3ccccc3)N2[C@H](c2ccc(O)cc2)[C@@]12C(=O)Nc1ccc(C#CC3=CCCCC3)cc12`, for which the cytotoxicity call is “inactive”.

Turning to `C[C@H](CO)N1C[C@H](C)[C@H](CN(C)S(=O)(=O)c2ccccc2)Oc2ccc(NC(=O)C3CC3)cc2CC1=O`, the cytotoxicity call is “inactive”.

Regarding `O=C(C[C@@H]1C=C[C@H](NC(=O)c2ccc3c(c2)OCO3)[C@H](CO)O1)NCc1ccc(Oc2ccccc2)cc1`, the cytotoxicity call was “inactive”.

Regarding `COc1ccc(-c2cc(=O)c3c(O)cc(O[C@@H]4O[C@H](CO[C@@H]5O[C@@H](C)[C@H](O)[C@@H](O)[C@H]5O)[C@@H](O)[C@H](O)[C@H]4O)cc3o2)cc1O`, the cytotoxicity call was “inactive”.

As to `COc1ccc([Si](C)(C)[C@H]2[C@H](CCn3cc([C@H](O)c4ccccc4)nn3)O[C@@]3(C(=O)N(c4ccccc4)c4ccccc43)[C@@H]2C)cc1`, the cytotoxicity call was “inactive”.

For `CC(C)C#Cc1cnc2c(c1)C(=O)N([C@H](C)CO)C[C@@H](C)[C@@H](CN(C)S(=O)(=O)c1cn(C)cn1)O2`, the cytotoxicity call was “inactive”.

The next experiment relates to S. aureus RN4220. The experiment is described as follows: growth inhibition call (relative growth <= 0.2). To be noted: 50 µM.
Take `Cc1ccc(S(=O)(=O)N[C@H](C)C(=O)O)cc1`: the growth inhibition call was “inactive”.

For `O=c1c(-c2ccc(O)cc2)coc2cc(O)cc(O)c12`, the growth inhibition call was “inactive”.

`C[C@H](CO)N1C[C@H](C)[C@@H](CN(C)Cc2ccc(Cl)c(Cl)c2)Oc2ccc(NC(=O)Cn3cnnn3)cc2C1=O`: the growth inhibition call is “inactive”.

Regarding `C[C@H](CO)N1C[C@H](C)[C@@H](CN(C)Cc2ccc(Oc3ccccc3)cc2)Oc2ccc(NC(=O)Cc3ccccc3)cc2C1=O`, the growth inhibition call was “inactive”.

For the compound `C[C@H]1CN([C@@H](C)CO)C(=O)Cc2cc(NS(=O)(=O)c3ccc(F)cc3)ccc2O[C@H]1CN(C)CC1CC1`, the growth inhibition call is “inactive”.

As for `Cc1ccc2c(Cl)cc(Cl)c(O)c2n1`, the growth inhibition call is “inactive”.

Regarding `C[C@H](O)C#Cc1ccc2c(c1)O[C@@H](CN(C)C(=O)Nc1ccccc1)[C@H](C)CN([C@@H](C)CO)S2(=O)=O`, the growth inhibition call was “inactive”.

In the case of `Cc1onc(C(=O)O)c1[N+](=O)[O-]`, the growth inhibition call was “inactive”.

Regarding `C[C@H]1CN([C@@H](C)CO)C(=O)c2cc(C3=CCCCC3)cnc2O[C@@H]1CN(C)S(=O)(=O)c1cn(C)cn1`, the growth inhibition call was “inactive”.

For `CC(C)C[C@@H]1NC(=O)[C@@]23C(=O)N[C@@H](Cc4ccccc4)[C@H]2[C@H](C)[C@@]2(C)O[C@H]2[C@@H]3/C=C/C/C=C\CNC(=O)[C@@H](C)NC1=O`, the growth inhibition call was “inactive”.

On to `C[C@@H]1CN([C@@H](C)CO)C(=O)c2cccc(NC(=O)c3cnccn3)c2O[C@@H]1CN(C)Cc1ccc(C(=O)O)cc1`, for which the growth inhibition call is “inactive”.

Turning to `C=CCNC1=C2C[C@@H](C)C[C@H](OC)[C@H](O)[C@@H](C)/C=C(\C)[C@H](OC(N)=O)[C@@H](OC)/C=C\C=C(/C)C(=O)NC(=CC1=O)C2=O`, the growth inhibition call is “inactive”.

On to `CC(=O)n1cc([C@@H]2C=C(C(=O)N3CCN(Cc4ccccc4)CC3)O[C@H](OCc3ccc(CO)cc3)C2)c2ccccc21`, for which the growth inhibition call was “inactive”.

In the case of `C[C@@H]1CN([C@H](C)CO)C(=O)Cc2cc(NS(C)(=O)=O)ccc2O[C@H]1CN(C)C`, the growth inhibition call is “inactive”.

For `O=C(C[C@@H]1C[C@@H]2c3cc(NC(=O)NC4CCCC4)ccc3O[C@@H]2[C@@H](CO)O1)NCc1ccc(Oc2ccccc2)cc1`, the growth inhibition call is “inactive”.

Regarding `COCC(=O)Nc1ccc2c(c1)OC[C@H](C)N(C(=O)c1ccccc1F)C[C@@H](C)[C@H](OC)CN(C)C2=O`, the growth inhibition call was “inactive”.

With `C[C@@H]1O[C@H]2Oc3c(-c4ccc(O)c(O)c4)oc4cc(O)c(c(O)c4c3=O)-c3cc(ccc3O)/C=C\C(=O)OC[C@H]3O[C@@H](O[C@H]([C@H]1O)[C@H]2O)[C@H](O)[C@@H](O)[C@@H]3O`, the growth inhibition call is “inactive”.

For the compound `C[C@@H]1CN([C@@H](C)CO)C(=O)c2cc(NC(=O)Nc3ccc4c(c3)OCO4)ccc2O[C@@H](C)CCCCO[C@@H]1CN(C)C(=O)Nc1ccccc1`, the growth inhibition call is “inactive”.

Turning to `C[C@@H]1CN([C@H](C)CO)C(=O)CCCn2nncc2CO[C@@H]1CN(C)S(=O)(=O)c1cccc(C#N)c1`, the growth inhibition call was “inactive”.

Take `CCn1c2ccc(Cl)cc2c2cc(Cl)ccc21`: the growth inhibition call was “inactive”.

For the compound `C[N+]1(CCCCC[N+]2(C)CCCC2)CCCC1.O=C([O-])C(O)C(O)C(=O)O.O=C([O-])C(O)C(O)C(=O)O`, the growth inhibition call was “inactive”.

Turning to `CNC(=O)[C@H]1C[C@@H]2CN(c3ncc(F)cn3)C[C@H]1O2`, the growth inhibition call was “inactive”.

With `N=C(N=C(N)N)NCCc1ccccc1`, the growth inhibition call was “inactive”.

Regarding `Cc1noc(C)c1NC(=O)N(C)C[C@H]1OCCCC[C@@H](C)Oc2ccc(NS(=O)(=O)c3ccccc3)cc2C(=O)N([C@@H](C)CO)C[C@H]1C`, the growth inhibition call is “inactive”.

On to `C[C@H]1CN([C@@H](C)CO)C(=O)c2cc(NC(=O)Nc3cccc4ccccc34)ccc2O[C@H]1CN(C)S(=O)(=O)c1ccccc1`, for which the growth inhibition call was “inactive”.

Regarding `CCOC(=O)c1c[nH]c(=S)[nH]c1=O`, the growth inhibition call was “inactive”.

For `O=C(C[C@@H]1C[C@H]2c3cc(NC(=O)C4CCOCC4)ccc3O[C@H]2[C@H](CO)O1)NCc1ccc2c(c1)OCO2`, the growth inhibition call is “inactive”.

Consider `C[C@H]1CN([C@@H](C)CO)C(=O)Cc2cc(NS(=O)(=O)c3cccs3)ccc2O[C@H]1CN(C)CC1CC1`, for which the growth inhibition call was “inactive”.

Consider `C[C@H](CO)N1C[C@H](C)[C@@H](CN(C)Cc2ccc(Oc3ccccc3)cc2)OCc2ccccc2-c2c(n(C)c3ccccc23)C1=O`, for which the growth inhibition call was “inactive”.

As for `CCC(C)(C)NC(=N)NC#N`, the growth inhibition call was “inactive”.

Consider `NNC(=O)CCCCC(=O)NO`, for which the growth inhibition call is “inactive”.

`CN(C)CCCNC(=O)C[C@H]1CC[C@H]2[C@@H](COC[C@H](O)CN2S(=O)(=O)c2ccccc2)O1`: the growth inhibition call is “inactive”.

On to `COc1ccc(S(=O)(=O)N(C)C[C@H]2Oc3ccc(NC(=O)NC(C)C)cc3CC(=O)N([C@H](C)CO)C[C@@H]2C)cc1`, for which the growth inhibition call was “inactive”.

For the compound `C[C@H](NC(=O)C[C@H]1C=C[C@H](NC(=O)CN2CCOCC2)[C@@H](CO)O1)c1ccccc1`, the growth inhibition call was “inactive”.

As to `C=CCNC(=O)[C@@H]1[C@H]2C(=O)O[C@H](c3ccccc3)[C@H](c3ccccc3)N2[C@H](c2ccc(O)cc2)[C@@]12C(=O)Nc1ccc(C#CC3=CCCCC3)cc12`, the growth inhibition call was “inactive”.

With `C[C@H](CO)N1C[C@H](C)[C@H](CN(C)S(=O)(=O)c2ccccc2)Oc2ccc(NC(=O)C3CC3)cc2CC1=O`, the growth inhibition call is “inactive”.

For the compound `O=C(C[C@@H]1C=C[C@H](NC(=O)c2ccc3c(c2)OCO3)[C@H](CO)O1)NCc1ccc(Oc2ccccc2)cc1`, the growth inhibition call was “inactive”.

As for `COc1ccc(-c2cc(=O)c3c(O)cc(O[C@@H]4O[C@H](CO[C@@H]5O[C@@H](C)[C@H](O)[C@@H](O)[C@H]5O)[C@@H](O)[C@H](O)[C@H]4O)cc3o2)cc1O`, the growth inhibition call was “inactive”.

As to `COc1ccc([Si](C)(C)[C@H]2[C@H](CCn3cc([C@H](O)c4ccccc4)nn3)O[C@@]3(C(=O)N(c4ccccc4)c4ccccc43)[C@@H]2C)cc1`, the growth inhibition call is “inactive”.

As to `CC(C)C#Cc1cnc2c(c1)C(=O)N([C@H](C)CO)C[C@@H](C)[C@@H](CN(C)S(=O)(=O)c1cn(C)cn1)O2`, the growth inhibition call is “inactive”.

These data come from the antibiotic and cytotoxicity screens of Wong et al. (2023).
